Whole data set: some 33,000 sequences, median “E-score (-0.5 to 0.5)” near -0.056, cut for the highest 2% near 0.38. Some of the results follow.
target: Stb4 (UniProt P50104); assay: PBM E-score (8-mer binding enrichment) (E-score (-0.5 to 0.5)); higher = stronger / more preferred TF binding; most listed sequences are background and not binding sites; details: protein concentration: 200 nM; construct: GST-DNA-binding domain
Experimental: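 Universal 'all 10-mer' protein binding microarrays (Agilent AMADID 015681) probed with GST-tagged S. cerevisiae TFs (full-length or DBD) made by in vitro transcription/translation (PURExpress), about 100-200 nM. Bound TF was detected with fluorescent anti-GST. Each ungapped 8-mer (which stands for itself and its reverse complement) is scored by the PBM enrichment score (E-score), a modified Wilcoxon-Mann-Whitney statistic from -0.5 to +0.5, computed with the Universal PBM Analysis Suite. Scale: above 0.35 generally sequence-specific binding.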

Sequence | PBM E-score
GCAGTGAA | -0.0782
AACGGTGT | -0.125
CACACATA | -0.0365
CAGTACTC | -0.194
CTGTGCAA | -0.258
CCGTGACC | 0.165
TACGTCAA | -0.167
CCTGAGCG | -0.242
AACTAATG | -0.0585
ATTCCTTA | -0.192
ACCATTAA | 0.0503
AACCCAGA | -0.198
AATTTGCC | 0.0997
CTTCGACC | -0.0721
ATACCAAT | -0.00151
GATTAGCC | 0.131
CAATGCCG | 0.331
AAATACGG | 0.0246
TATTCTCA | -0.166
AGGCTCTC | -0.104
CCCTAGTC | -0.24
GAAGGCTC | -0.00996
CTGACGCA | -0.298
CCACCGTA | -0.0836
TCTTCGAA | -0.201

Sequence | PBM E-score
CTAAGAAC | 0.118
CACATGAA | -0.0962
ATAAGAAC | 0.114
CAGCACGG | 0.161
ACGAGTAG | -0.11
AACTTATA | 0.0985
ATCAGCGG | 0.209
GCAACACA | -0.121
AACCATGT | 0.0503
ACCGAATG | 0.217
AGTCTAAC | -0.163
AAACGCCG | 0.287
GAGAGGGC | -0.274
ACCTCTGA | -0.0188
CCGTCAAG | 0.118
CAACGGGG | -0.121
ATCACCAT | -0.0633
AACAATAA | 0.13
CATTTAAC | -0.0923
CTCGCCAC | -0.119
CCCAAGGA | -0.173
ATTCACCG | 0.259
GTATCGAC | -0.064
GATGCATC | 0.0326
AAAGGCCC | -0.0153

Sequence | PBM E-score
AGCATTCA | -0.0667
ATCCATAA | 0.0647
AGTGATTC | 0.0168
ACGGTAAT | 0.045
ACATCAGA | -0.145
CCCCTGGC | -0.00158
CGAGATGA | 0.21
CAGTGAAG | -0.214
AACCTGGC | -0.224
ATCTTGGG | -0.206
GACTAATC | 0.0642
GTCCCAAC | -0.189
GTAGAGTA | -0.0535
GGTCACAA | 0.00311
ACTAATTC | 0.13
CAAGGTGC | -0.132
ACCATCAC | -0.0712
GCGAACTA | 0.053
AGCATTGC | -0.0432
CGACCGGC | 0.119
CGGCAAAG | 0.282
GGGTACAA | 0.153
ACGTTTCA | -0.0513
AGACGTGC | -0.0523
GCGTAAGA | 0.0257

Sequence | PBM E-score
AGCCTGTA | -0.0937
AACGGAGG | 0.203
GACTACCC | 0.205
AATAGGCG | 0.112
AAAATCCA | -0.0988
AACTCTGT | -0.208
CGCCTACC | 0.0138
GTCCTACA | 0.135
AGCATAAG | -0.0221
ACTTGATC | -0.0308
GGACGTTA | 0.0417
AATCTGTA | -0.166
ATCACATC | 0.161
AAACATCT | -0.0959
GGTATCCA | 0.0955
AGTAATCG | 0.028
AACTAGCA | 0.0498
GTTGGTCA | -0.00814
ACATCCTG | -0.0816
AGATCTGC | -0.158
AGACTGCT | -0.297
GCGTTCCC | 0.197
GGGACTAC | 0.134
CTTGGTAC | -0.0021
AATATGCC | 0.0963

Sequence | PBM E-score
CTGATTAA | 0.0362
CTTTTCAC | -0.191
CAGTAATA | -0.0578
CGAGCGGA | 0.367
CAATGCAC | -0.0284
CCACAGTA | -0.254
ACGGGCAG | 0.00374
GAGATTAA | -0.0853
ATTTGTTA | 0.0653
AGAGGCTC | -0.095
CATTAATG | -0.105
AATCGTTC | -0.0546
ATCTGAAG | -0.0674
AGTTGATG | -0.273
CCTGGGTC | -0.126
AAGTACAG | -0.344
CGCAGCAA | -0.172
AAATTGCT | -0.149
GGGCGCTA | -0.15
ATCCCAAG | -0.0181
ACCCACAC | 0.0508
TGTCTAAA | -0.228
CGTCCAAG | -0.115
ATCTTATC | 0.0563
GAGGGCGC | -0.0042

Sequence | PBM E-score
CATAGATG | -0.0909
GGAGAGCA | -0.139
GACGCAGA | 0.0644
GGAAGGAC | 0.13
GAGTTAAA | -0.112
TTAAATAA | 0.178
ACAAGGCG | -0.0823
TCGCGCAA | -0.185
ATCCGTAA | 0.35
CGTGGAGC | 0.0476
CAGGAATG | -0.259
CGCGCCTA | 0.0819
GAGCAGAA | -0.0843
TGAGTAAA | -0.204
ACTTGGAT | -0.0862
GGATAGGA | 0.184
AGATGTCG | 0.0571
ACCCGCGA | 0.085
AACTCGGG | 0.383
AGGCGGCA | -0.106
CCTAAGAC | -0.175
GGCAACCC | 0.072
CATGGTCG | 0.0755
AACACATT | 0.0917
CAACACTA | -0.108

Sequence | PBM E-score
GAAATGGA | -0.0648
ACTATGCT | -0.165
AGTTGTCG | -0.00015
ATAATTGG | -0.0516
ATATGAAA | -0.0762
AATATAGT | -0.0188
TCCGACCA | 0.388
CTGCAGTC | -0.0539
TATCAGAA | 0.0123
ATGAGTTC | 0.129
ATAACCGG | 0.281
AGACTATG | -0.17
GTATTATA | 0.0782
AAAAAAAT | 0.115
GAAAACGA | -0.137
CTCAGAGC | -0.294
TGGTAACA | -0.132
AAATTACC | 0.178
AGAGTAGC | -0.183
GAGAAAAC | -0.00747
CTTCCGCA | 0.331
CTATGGAA | 0.0451

From the supplement of paper PMC3334620
